# Laboratory results from PubChem BioAssay AID488969 (Vanderbilt High Throughput Screening Facility, 2010).
# Over roughly 110,000 compounds, “z-score” has its median near -0.1; the highest 2% begin near 2. Some of the results follow. The source made the active and inactive calls.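 Rule for the calls: active = z-score in the third read window above 3 or below -3; inactive = the rest.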
# Biological target: Metabotropic glutamate receptor 8 (Rattus norvegicus) (UniProt P70579)
# Assay: rat mGluR8 modulators via GIRK flux, primary screen, cell-based, thallium flux, HTS (AID 488969)
# Conditions: HEK293 rat mGluR8, GIRK (G protein-gated inwardly rectifying potassium channel) thallium flux, FluoZin2; at 10 µM; stronger effect = higher value; submaximal glutamate (EC20) added with thallium
# Sequence of UniProt P70579 (P70579 whole entry, looked up): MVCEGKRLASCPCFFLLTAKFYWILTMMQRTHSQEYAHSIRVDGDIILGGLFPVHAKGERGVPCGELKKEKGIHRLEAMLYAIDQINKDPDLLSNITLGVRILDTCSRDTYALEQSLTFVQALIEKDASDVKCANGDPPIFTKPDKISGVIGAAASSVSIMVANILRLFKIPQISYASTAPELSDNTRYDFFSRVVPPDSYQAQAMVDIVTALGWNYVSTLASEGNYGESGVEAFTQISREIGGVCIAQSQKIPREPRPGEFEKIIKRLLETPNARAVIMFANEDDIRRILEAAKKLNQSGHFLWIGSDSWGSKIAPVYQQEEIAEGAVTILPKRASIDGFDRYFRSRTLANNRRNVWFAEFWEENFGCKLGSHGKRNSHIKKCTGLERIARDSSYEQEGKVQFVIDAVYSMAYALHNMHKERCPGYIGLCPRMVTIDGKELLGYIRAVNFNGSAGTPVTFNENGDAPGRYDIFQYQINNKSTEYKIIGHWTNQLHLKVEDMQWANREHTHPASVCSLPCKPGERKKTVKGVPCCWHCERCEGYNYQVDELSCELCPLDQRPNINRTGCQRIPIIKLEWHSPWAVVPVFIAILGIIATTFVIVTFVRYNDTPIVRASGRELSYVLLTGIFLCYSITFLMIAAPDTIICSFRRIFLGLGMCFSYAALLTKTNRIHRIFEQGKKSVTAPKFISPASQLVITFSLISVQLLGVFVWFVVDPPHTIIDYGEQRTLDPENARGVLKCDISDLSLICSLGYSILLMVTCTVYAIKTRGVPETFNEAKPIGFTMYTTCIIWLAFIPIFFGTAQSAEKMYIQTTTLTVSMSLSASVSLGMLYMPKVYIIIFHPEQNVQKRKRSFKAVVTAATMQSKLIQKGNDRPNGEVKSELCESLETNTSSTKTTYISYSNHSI
row,Compound,z-score
1,CN(c1ncc(C(F)(F)F)cc1Cl)n1cc(C(=O)O)c2ccccc2c1=O,-0.0284
2,CCN1C(=O)C2(Nc3ccccc3-c3nc4ccccc4n32)c2cc(OC)ccc21 (stereo unspecified),-0.79
3,COC(=O)Cn1ncc2c(C)n(Cc3ccccc3)c(C)c2c1=O,-0.229
4,COc1ccc(Cl)cc1NC(=O)CN(C)C(=O)CNC(=O)C12CC3CC(CC(C3)C1)C2,-0.756
5,Cn1c(=O)c2[nH]c(NCCCN3CCOCC3)nc2n(C)c1=O,0.667
6,Cn1c(CN2CCN(CC#N)CC2)c(C#N)c2ccccc21,-0.271
7,O=C(NCc1ccco1)c1ccc(Cn2c(=O)c3sccc3n(Cc3ccc(F)cc3)c2=O)cc1,-0.219
8,CCOC(=O)/C(C(=O)Nc1ccccc1Cl)=C1/NC(C)(C)Cc2ccccc21,-0.489
9,CCOC(=O)/C(N=Nc1sc(C(=O)OC)c(C)c1C(=O)OCC)=C(\O)CCl,-0.104
10,c1ccc(-c2cc3c(nn2)CCc2nonc2-3)cc1,0.531
11,CC(=O)c1c(C)nc(-c2ccc(Cl)cc2)nc1N=CN(C)C,-0.179
12,CC(Oc1ccc(Cl)cc1)C(=O)NNC(=S)NC(=O)c1ccco1 (stereo unspecified),active: 5.62
13,COc1ccc(N2CCN(C3CC(=O)N(C)C3=O)CC2)cc1 (stereo unspecified),0.537
14,Cc1ccccc1OCc1nnc(SCC(=O)Nc2ccc3c(c2)oc2ccccc23)n1C,-0.041
15,CCOc1cccc2sc(NC(=O)c3ccc(Br)s3)nc12,-0.429
16,COCCCNC(=O)Cn1cc(C(C)=O)c2ccccc21,0.399
17,COc1cc2ccccc2c2c1CCCC2=O,-0.304
18,Nc1cc(N)nc(SCC(=O)Nc2ccccc2)n1,-0.306
19,Cc1cc(C)c(C)c(OCCCn2ccnc2)c1,-0.369

row,Compound,z-score
1,CCOc1c2ccc(C(=O)NCc3ccc4c(c3)OCO4)cc2nn1C,-0.106
2,CCCN(Cc1cc2cccc(C)c2[nH]c1=O)C(=O)c1cccc(OC)c1,-0.328
3,COc1ccc(Nc2ccc(N3C(=O)CCCC3=O)cc2[N+](=O)[O-])cc1OC,-0.055
4,CCOC(=O)c1c(C)n(CC(O)c2ccccc2)c2ccc(O)cc12 (stereo unspecified),-0.41
5,CCC(Sc1nnnn1-c1ccccc1)C(=O)Nc1nc2ccccc2s1 (stereo unspecified),1.04
6,COc1ccc2c(=O)c(-c3ccccc3)c(C)oc2c1,-0.496
7,Cc1ccc(-n2ncc3c(N4CCC(C(N)=O)CC4)ncnc32)c(C)c1,0.838
8,COc1ccc(/C=N/NC(=O)c2ccccc2)cc1CN1CCN(c2ccc(F)cc2)CC1,-0.0421
9,Cc1ncc(CC(=O)n2cc(C(=O)c3cc(F)ccc3O)cn2)s1,-1.11
10,CCCC(=O)C1=C(O)C(C(=O)OC)C(C)(C)CC1=Nc1cccc2ccccc12 (stereo unspecified),-1.47
11,COc1ccc(NC(=O)[C@H](CCS(C)(=O)=O)N2Cc3ccccc3C2=O)c(OC)c1,-0.315
12,O=C(NNS(=O)(=O)c1ccccc1)c1cnn(-c2ccccc2)c1-n1cccc1,-0.00899
13,O=C(OCC(=O)N1CCC(Cc2ccccc2)CC1)c1ccc[nH]c1=O,1.15
14,CC(C)n1c2ccccc2c2cc([N+](=O)[O-])ccc21,-0.11
15,O=C(Nc1cnn(C23CC4CC(CC(C4)C2)C3)c1)c1cnn2cccnc12,0.456
16,CC1=CS(=O)(=O)CC1Sc1nc2ccccc2[nH]1 (stereo unspecified),-0.0983
17,CC(C)C(=O)NC(=S)Nc1ccccn1,-0.0457
18,CCOc1ccccc1NC(=O)Nc1cccc(C(C)=O)c1,active: 3.62
19,CCOc1ccc(N=C2NC(=O)S/C2=C\c2ccc(O)cc2)cc1,0.108

row,Compound,z-score
1,Cn1cccc1/C=C(/C#N)C(N)=S,-0.0248
2,O=C(O)/C=C/C(=O)Nc1ccccc1SC(F)(F)F,-0.384
3,CC#CCNCc1ccccc1,0.0417
4,O=C(c1cccc(N2CCCC2=O)c1)N1CCN(c2ccccc2)CC1,0.821
5,COc1ccccc1CC(=O)NCCc1ccc(S(N)(=O)=O)cc1,0.117
6,O=c1c2ccccc2nc2n1CCC2,-0.637
7,O=C(CSCc1ccc(F)cc1)NC1CCCC1,-1.01
8,CC1(C)Cc2c(c(-c3ccccc3Cl)[nH]c(=O)c2C#N)CO1,-0.577
9,COc1ccccc1Nc1nc(N)nc(CN2CCOCC2)n1,-0.181
10,O=C(N/N=C/c1cccc(OC(=O)c2ccc3c(c2)OCO3)c1)c1cncc(Br)c1,-0.144
11,CN1CCN(c2nc(-c3cc4ccccc4o3)cs2)CC1,0.0553
12,O=C(N1CCOCC1)n1cnc2ccccc21,0.157
13,Cc1sc2nc(SCC(=O)N3CCCCC3)[nH]c(=O)c2c1C,0.0537
14,CN(c1ccc(C(=O)NCC2CCCO2)cc1)S(C)(=O)=O (stereo unspecified),-0.404
15,N#Cc1c(NC(=O)CSc2nc(N)cc(=O)[nH]2)sc2c1CCCCCC2,-1.32
16,Cc1ccc(C(=O)NNC(=O)C(C)Sc2nc(N)cc(N)n2)cc1 (stereo unspecified),0.236
17,Cc1cccc(C2CC(c3ccc(F)cc3)Nc3nc(N)nn32)c1 (stereo unspecified),-0.0506
18,CC(C)(C)c1nnc(N/N=C/c2ccc(Br)cc2)n(N)c1=O,0.0626
